{"source": "PubChem BioAssay AID596", "about": "(National Center for Advancing Translational Sciences (NCATS), 2007)", "note": "Screen size: about 71,000 compounds; about 1,400 (2%) were called active. The inconclusive results got no clear call from the source; some entries with a clear call stand among them for comparison. Calls follow the shape of the dose curve; as a rule, active = well fitted curve in the direction sought with a large enough effect; inconclusive = small, poorly fitted or top-dose-only effect; inactive = no such curve, though single readings can be large or run the other way. Potencies beside an inconclusive call are fits to weak or partial responses and may not hold up. % is scaled to controls: 0 for no effect and ±100 for the full control effect; potency is read from the fitted curve at half-maximal effect.", "data": [{"biological_target": "Microtubule-associated protein tau (Homo sapiens) (UniProt P10636)", "sequence (P10636 whole entry, looked up)": "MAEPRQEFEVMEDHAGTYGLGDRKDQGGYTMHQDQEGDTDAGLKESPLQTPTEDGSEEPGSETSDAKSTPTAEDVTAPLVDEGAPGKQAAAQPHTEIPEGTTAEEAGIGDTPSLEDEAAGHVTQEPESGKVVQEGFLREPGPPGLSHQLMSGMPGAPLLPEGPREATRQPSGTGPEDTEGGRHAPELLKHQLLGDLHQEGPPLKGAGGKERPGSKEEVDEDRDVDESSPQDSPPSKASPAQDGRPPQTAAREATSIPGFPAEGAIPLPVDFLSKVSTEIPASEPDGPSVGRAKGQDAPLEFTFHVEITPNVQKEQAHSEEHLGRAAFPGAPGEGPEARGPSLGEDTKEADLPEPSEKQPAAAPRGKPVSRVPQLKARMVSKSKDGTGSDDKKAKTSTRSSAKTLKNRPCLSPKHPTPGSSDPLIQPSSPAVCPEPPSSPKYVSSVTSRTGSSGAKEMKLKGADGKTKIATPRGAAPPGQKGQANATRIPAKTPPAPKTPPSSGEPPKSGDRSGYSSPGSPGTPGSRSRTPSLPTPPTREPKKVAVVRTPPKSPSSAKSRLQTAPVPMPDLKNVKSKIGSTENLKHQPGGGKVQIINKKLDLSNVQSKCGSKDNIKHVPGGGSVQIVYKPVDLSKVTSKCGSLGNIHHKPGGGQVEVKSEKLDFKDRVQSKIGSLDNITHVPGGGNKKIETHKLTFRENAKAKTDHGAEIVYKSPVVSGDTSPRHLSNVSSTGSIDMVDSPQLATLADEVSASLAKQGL", "assay": "qHTS Assay for Tau Filament Binding;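 also: actives lower thioflavin S fluorescence by blocking filaments or displacing dye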", "conditions": "recombinant tau filaments, thioflavin S fluorescence, 15 h, filaments grown with octadecylsulfate alongside compound; series mostly up to 57.1 µM", "in_short": "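Tau 2 uM in ThS buffer dispensed; compound added; 60 uM ODS added (finals 1 uM tau, 30 uM ODS); 15 h 37 C; fluor ex450/em510.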", "values": [{"smiles": "CC(NS(C)(=O)=O)C(c1cccs1)N1CCN(Cc2ccccc2)CC1", "note": "(stereo not drawn)", "Potency": "inconclusive: 31.6 µM [decreasing]"}, {"smiles": "COc1ccc(Oc2ncc3nc(-c4cc(F)cc(F)c4)c(=O)n(C)c3n2)cc1", "Potency": "inconclusive: 12.6 µM [decreasing]"}, {"smiles": "COc1ccccc1CNc1cc(-c2ccccc2C)ncn1", "Potency": "inactive"}, {"smiles": "COC(=O)c1c(N)n(-c2ccc(N3CCOCC3)cc2)c2nc3ccccc3nc12", "Potency": "inconclusive: 25.1 µM [decreasing]"}, {"smiles": "Cn1c(=O)cnc2cnc(Nc3ccccc3)nc21", "Potency": "inconclusive: 31.6 µM [decreasing]"}, {"smiles": "COc1ccc(O)c(C(=O)CC(=O)c2ccccc2)c1", "Potency": "inconclusive: 25.1 µM [decreasing]"}, {"smiles": "O=C(Nc1ccc(N2CCOCC2)cc1)Nc1cnsn1", "Potency": "inconclusive: 25.1 µM [decreasing]"}, {"smiles": "Cc1ccc(C(C(=O)NC2CCCC2)N(Cc2ccc(F)cc2)C(=O)c2csnn2)o1", "note": "(stereo not drawn)", "Potency": "inactive"}, {"smiles": "O=C(NCc1ccco1)c1cccn2c(=O)c3cc(Br)ccc3nc12", "Potency": "active: 25.1 µM"}, {"smiles": "CC(C)Oc1ccc(C2c3c(oc4ccccc4c3=O)C(=O)N2CCCN2CCOCC2)cc1", "note": "(stereo not drawn)", "Potency": "active: 15.8 µM"}, {"smiles": "CCOC(=O)N1CCN(C(=O)Nc2ccc3nc(C)c(C)nc3c2)CC1", "Potency": "inconclusive: 20 µM [decreasing]"}, {"smiles": "CN1CCN(C2=C(Cl)C(=O)N(C3CCCCC3)C2=O)CC1", "Potency": "active: 15.8 µM"}, {"smiles": "CC(=C/C=C/C(C)=C/C=C/C=C(C)/C=C/C=C(C)/C=C/C(=O)O)/C=C/C(=O)O", "Potency": "active: 25.1 µM"}, {"smiles": "CCOC(=O)c1ncn2c1CN(C)C(=O)c1cc(F)ccc1-2", "Potency": "inconclusive: 39.8 µM [decreasing]"}, {"smiles": "CC(C)(C)c1ccccc1OCCN1CCCC1", "Potency": "inconclusive: 3.98 µM [decreasing]"}, {"smiles": "COc1ccccc1NC(=O)CN1CCC(n2c(C)nc3cc(F)ccc32)CC1", "Potency": "inactive"}, {"smiles": "COc1ccccc1-c1ccc2ncnc(NCCN3CCOCC3)c2c1", "Potency": "inactive"}, {"smiles": "COC(=O)c1c(C)[nH]c(C)c1C(=O)c1ccccc1Cc1ccccc1", "Potency": "inconclusive: 39.8 µM [decreasing]"}, {"smiles": "COc1ccc(N(CC(=O)NCc2cccs2)S(=O)(=O)c2c(C)nn(C)c2C)cc1", "Potency": "inconclusive: 31.6 µM [decreasing]"}, {"smiles": "O=C(Nc1ccc(N2CCOCC2)cc1)c1ccc2nc(-c3ccco3)c(-c3ccco3)nc2c1", "Potency": "active: 7.94 µM"}, {"smiles": "CC(=O)c1cccc(NC(=O)C2CCN(S(=O)(=O)c3ccc(C)cc3)CC2)c1", "Potency": "inactive"}, {"smiles": "CCN(CC)c1ccc(NC(=O)CN2CCN(c3ccc(F)cc3)CC2)cc1", "Potency": "inconclusive: 12.6 µM [decreasing]"}, {"smiles": "CCOC(=O)c1[nH]c2ccc(OC)cc2c1NC(=O)CN1CCC2(CC1)OCCO2", "Potency": "inactive"}, {"smiles": "Cc1ccc(C)n1-c1ccc(N2CCOCC2)cc1", "Potency": "active: 25.1 µM"}, {"smiles": "CCOC(=O)C1CCN(S(=O)(=O)c2ccc3[nH]c(=O)oc3c2)CC1", "Potency": "inactive"}, {"smiles": "CC(C)(C)C(=O)[C@@H]1[C@@H]2C(=O)N(c3ccc4c(c3)OCCO4)C(=O)[C@@H]2C2c3ccccc3C=CN21", "note": "(stereo partly drawn)", "Potency": "inconclusive: 39.8 µM [decreasing]"}, {"smiles": "Cc1ccc(NC(=O)CSc2nc3ccccc3c(=O)n2CCCC(=O)N2CCCC2)cc1", "Potency": "inactive"}, {"smiles": "CCOc1cc(N2CCOCC2)c(OCC)cc1NC(=O)c1nc2nc(C)cc(C)n2n1", "Potency": "active: 25.1 µM"}, {"smiles": "c1ccc(CCC2=NCCn3cccc32)cc1", "Potency": "inconclusive: 25.1 µM [decreasing]"}, {"smiles": "O=C(c1ccc2c(c1)OCO2)N1CCCCC1", "Potency": "inconclusive: 39.8 µM [decreasing]"}, {"smiles": "CS(=O)c1nc(-c2ccc(Br)cc2)cc(-c2ccccc2)c1C#N", "note": "(stereo not drawn)", "Potency": "inconclusive: 3.16 µM [decreasing]"}, {"smiles": "Nc1cc(Cl)ccc1N1CCOCC1", "Potency": "inconclusive: 25.1 µM [decreasing]"}, {"smiles": "N#Cc1cc2c(nc1SCc1ccccc1)CCCC2=O", "Potency": "inactive"}, {"smiles": "c1ccc2c[n+](CCCC[n+]3ccc4ccccc4c3)ccc2c1", "Potency": "active: 3.16 µM"}, {"smiles": "O=c1c(-c2ccc(Cl)cc2)nc2cnc(N3CCNCC3)nc2n1-c1ccccc1", "Potency": "active: 3.16 µM"}, {"smiles": "C1=C(CCNc2ncnc3nc[nH]c23)CCCC1", "Potency": "inconclusive: 20 µM [decreasing]"}, {"smiles": "C=C1CC[C@@H](O)C/C1=C/C=C1\\CCC[C@]2(C)[C@@H]1CC[C@H]2[C@@H](C)CCCC(C)C", "Potency": "inconclusive: 39.8 µM [decreasing]"}, {"smiles": "N=C(N)CCNC(=O)[C@@H]1CCC(N)=N1", "activity change, negative = inhibition": "inactive: -5.5% [at 11.4 µM]"}, {"smiles": "O=C1c2ccccc2C(Nc2ccc3c(c2)OCO3)N1Cc1ccc2c(c1)OCO2", "note": "(stereo not drawn)", "Potency": "active: 10 µM"}, {"smiles": "C[C@H](NC[C@H](O)CP(=O)(O)CC1CCCCC1)c1ccc(Cl)c(Cl)c1", "Potency": "inconclusive: 39.8 µM [decreasing]"}, {"smiles": "COc1cccc(C=NC=Nc2cccc(OC)c2)c1", "Potency": "inconclusive: 39.8 µM [decreasing]"}, {"smiles": "C[N+](C)(CCCCCC[N+](C)(C)CCCN1C(=O)c2cccc3cccc(c23)C1=O)CCCN1C(=O)c2cccc3cccc(c23)C1=O", "Potency": "active: 2 µM"}, {"smiles": "CCN(CC)C(c1ccc(C)cc1)c1nnnn1C1CCCCC1", "note": "(stereo not drawn)", "Potency": "inactive"}, {"smiles": "Nc1ccc(N=Nc2ccc(-c3ccc(O)cc3)cc2)c2ccc(S(=O)(=O)O)cc12", "Potency": "active: 2.51 µM"}, {"smiles": "CCn1c2ccccc2c2cc(C3C(C#N)=C(N)Oc4n[nH]c(COC)c43)ccc21", "note": "(stereo not drawn)", "Potency": "inconclusive: 15.8 µM [decreasing]"}, {"smiles": "C1=C(CN2CCOCC2)COc2c1cccc2OC[C@@H]1CNCCO1", "Potency": "inconclusive: 39.8 µM [decreasing]"}, {"smiles": "COc1ccc(-c2csc(NCc3ccco3)n2)cc1C", "Potency": "active: 12.6 µM"}, {"smiles": "CN1CCN(CC(=O)N2c3ccccc3C(C)(c3ccccc3)CC2(C)C)CC1", "note": "(stereo not drawn)", "Potency": "inconclusive: 25.1 µM [decreasing]"}, {"smiles": "CCSc1ccccc1C(=O)N1CCN(c2ccccc2F)CC1", "Potency": "inactive"}, {"smiles": "Cc1nn(-c2cc(N3CCCCC3)ccc2N)c(=O)c2ccccc12", "Potency": "inconclusive: 25.1 µM [decreasing]"}, {"smiles": "COc1cc2cc(C(=O)O)n(C)c2c(OC)c1OC", "Potency": "inactive"}, {"smiles": "O=c1c2cc(Cl)ccc2oc2nc3n(c(=O)c12)CCCS3", "Potency": "active: 12.6 µM"}, {"smiles": "CCOc1ncccc1C(=O)OCc1cc(=O)n2c(n1)sc1ccccc12", "Potency": "inactive"}]}]}
